# From the supplement of paper PMC8728848
# Some of the results follow.
# B1: SJA (Sophora japonica) (protein)
# chain: FLGLFNSGGYSSSYQIVAVEFDTYINEWDPKTRHIGIDINSINSTKTVTWGWENGEVAIVLISYKAATETLTVSLTYPSSQTSYILSAAVDLKSILPEWVRIGF
# Legend:
# Experiment in all cases: glycan array binding signal (z-score within array); higher = stronger binding
# Details in all cases: glycan notation: IUPAC condensed, linker removed
# [1] = target: Gal(b1-4)GlcNAc
# Outline: (§1)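 The binding signal is a Z-score computed within each array. Data were drawn from 3228 arrays in the Consortium for Functional Glycomics database, restricted to those with a known protein sequence. Scores were averaged over arrays of the same protein sequence at different concentrations or buffers, and over linkers, and negative values can be taken as non-binding.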
# [2] = target: Gal(b1-4)GlcNAc(a1-6)Gal(b1-4)GlcNAc
# Outline: as §1
# [3] = target: Gal(b1-4)GlcNAc(b1-2)Man
# Outline: as §1
# [4] = target: Gal(b1-4)GlcNAc(b1-2)Man(a1-3)Man(b1-4)GlcNAc(b1-4)GlcNAc
# Outline: as §1
# [5] = target: Gal(b1-4)GlcNAc(b1-2)Man(a1-3)[Gal(b1-4)GlcNAc(b1-2)Man(a1-6)]Man(b1-4)GlcNAc(b1-4)GlcNAc
# Outline: as §1
# [6] = target: Gal(b1-4)GlcNAc(b1-2)Man(a1-3)[Gal(b1-4)GlcNAc(b1-2)Man(a1-6)]Man(b1-4)GlcNAc(b1-4)[Fuc(a1-6)]GlcNAc
# Outline: as §1
# [7] = target: Gal(b1-4)GlcNAc(b1-2)Man(a1-3)[Gal(b1-4)GlcNAc(b1-2)Man(a1-6)][Gal(b1-4)GlcNAc(b1-4)]Man(b1-4)GlcNAc(b1-4)[Fuc(a1-6)]GlcNAc
# Outline: as §1
# [8] = target: Gal(b1-4)GlcNAc(b1-2)Man(a1-3)[Gal(b1-4)GlcNAc(b1-2)Man(a1-6)][GlcNAc(b1-4)]Man(b1-4)GlcNAc(b1-4)[Fuc(a1-6)]GlcNAc
# Outline: as §1
# [9] = target: Gal(b1-4)GlcNAc(b1-2)Man(a1-3)[GlcNAc(b1-2)Man(a1-6)]Man(b1-4)GlcNAc(b1-4)GlcNAc
# Outline: as §1
# [10] = target: Gal(b1-4)GlcNAc(b1-2)Man(a1-3)[GlcNAc(b1-4)][Gal(b1-4)GlcNAc(b1-2)Man(a1-6)]Man(b1-4)GlcNAc(b1-4)GlcNAc
# Outline: as §1
# [11] = target: Gal(b1-4)GlcNAc(b1-2)Man(a1-3)[Man(a1-6)]Man(b1-4)GlcNAc(b1-4)GlcNAc
# Outline: as §1
# [12] = target: Gal(b1-4)GlcNAc(b1-2)Man(a1-6)Man(b1-4)GlcNAc(b1-4)GlcNAc
# Outline: as §1
# [13] = target: Gal(b1-4)GlcNAc(b1-2)Man(a1-6)[GlcNAc(b1-2)Man(a1-3)]Man(b1-4)GlcNAc(b1-4)GlcNAc
# Outline: as §1
# [14] = target: Gal(b1-4)GlcNAc(b1-2)Man(a1-6)[Man(a1-3)]Man(b1-4)GlcNAc(b1-4)GlcNAc
# Outline: as §1
# [15] = target: Gal(b1-4)GlcNAc(b1-2)[Gal(b1-4)GlcNAc(b1-4)]Man(a1-3)[Gal(b1-4)GlcNAc(b1-2)Man(a1-6)]Man(b1-4)GlcNAc(b1-4)GlcNAc
# Outline: as §1
# [16] = target: Gal(b1-4)GlcNAc(b1-2)[Gal(b1-4)GlcNAc(b1-4)]Man(a1-3)[Gal(b1-4)GlcNAc(b1-2)[Gal(b1-4)GlcNAc(b1-6)]Man(a1-6)]Man(b1-4)GlcNAc(b1-4)GlcNAc
# Outline: as §1
# [17] = target: Gal(b1-4)GlcNAc(b1-2)[Gal(b1-4)GlcNAc(b1-4)]Man(a1-3)[GlcNAc(b1-4)][Gal(b1-4)GlcNAc(b1-2)Man(a1-6)]Man(b1-4)GlcNAc(b1-4)GlcNAc
# Outline: as §1
# [18] = target: Gal(b1-4)GlcNAc(b1-2)[Gal(b1-4)GlcNAc(b1-4)]Man(a1-3)[GlcNAc(b1-4)][Gal(b1-4)GlcNAc(b1-2)[Gal(b1-4)GlcNAc(b1-6)]Man(a1-6)]Man(b1-4)GlcNAc(b1-4)GlcNAc
# Outline: as §1
# [19] = target: Gal(b1-4)GlcNAc(b1-2)[Gal(b1-4)GlcNAc(b1-6)]Man(a1-6)[Gal(b1-4)GlcNAc(b1-2)Man(a1-3)]Man(b1-4)GlcNAc(b1-4)GlcNAc
# Outline: as §1
# [20] = target: Gal(b1-4)GlcNAc(b1-2)[Gal(b1-4)GlcNAc(b1-6)]Man(a1-6)[Gal(b1-4)GlcNAc(b1-2)Man(a1-3)]Man(b1-4)GlcNAc(b1-4)[Fuc(a1-6)]GlcNAc
# Outline: as §1
# [21] = target: Gal(b1-4)GlcNAc(b1-2)[Gal(b1-4)GlcNAc(b1-6)]Man(a1-6)[GlcNAc(b1-4)][Gal(b1-4)GlcNAc(b1-2)Man(a1-3)]Man(b1-4)GlcNAc(b1-4)GlcNAc
# Outline: as §1
# [22] = target: Gal(b1-4)GlcNAc(b1-2)[Gal(b1-4)GlcNAc(b1-6)]Man(a1-6)[GlcNAc(b1-4)][Gal(b1-4)GlcNAc(b1-2)[Gal(b1-4)GlcNAc(b1-4)]Man(a1-3)]Man(b1-4)GlcNAc(b1-4)[Fuc(a1-6)]GlcNAc
# Outline: as §1
# [23] = target: Gal(b1-4)GlcNAc(b1-3)Gal(b1-3)GalNAc
# Outline: as §1
binder,measurement,setting,value
B1,glycan array binding signal (z-score),[1],-0.222
same,glycan array binding signal (z-score),[2],-0.173
same,glycan array binding signal (z-score),[3],0.008
same,glycan array binding signal (z-score),[4],-0.157
same,glycan array binding signal (z-score),[5],-0.156
same,glycan array binding signal (z-score),[6],-0.363
same,glycan array binding signal (z-score),[7],-0.343
same,glycan array binding signal (z-score),[8],-0.337
same,glycan array binding signal (z-score),[9],-0.116
same,glycan array binding signal (z-score),[10],-0.093
same,glycan array binding signal (z-score),[11],-0.201
same,glycan array binding signal (z-score),[12],-0.334
same,glycan array binding signal (z-score),[13],-0.21
same,glycan array binding signal (z-score),[14],-0.043
same,glycan array binding signal (z-score),[15],-0.12
same,glycan array binding signal (z-score),[16],-0.162
same,glycan array binding signal (z-score),[17],-0.313
same,glycan array binding signal (z-score),[18],-0.099
same,glycan array binding signal (z-score),[19],-0.381
same,glycan array binding signal (z-score),[20],-0.172
same,glycan array binding signal (z-score),[21],-0.161
same,glycan array binding signal (z-score),[22],-0.039
same,glycan array binding signal (z-score),[23],-0.293
